From the RNAGym collection of RNA variant scans (doi:10.7554/elife.90254) come the findings set out here.

The source gives no read counts; variants with many changes may rest on few reads.

Sequences and labels used below:
B1: LINE1-full (parent)
chain: UACGUAGGUGGUUUUCCCCUGAUAGUGCUAAGGGGGCCUGGAAGUUUGGACUGGGCAGAGCUCAACACAGCGUGGCAAAGUGGCUGUGGCUAGACUGCCUCUCUGGAUUCCUCGUCACUCAGCAGGGCAUCUCUGAGAGAAAUGCC

Variants of B1 are the subject of the data set. The data set can be described thus: self-cleavage, relative activity (ratio to wild type); higher = more cleavage; in vitro, sequencing; the parent is a self-cleaving ribozyme.
U45C U47A A50U U87A U91C U96C: the self-cleavage was determined as 0.
Take U46C G54A U134A A142G: the self-cleavage was 0.32.
For U47A A64G U85A A136U, the self-cleavage is 0.16.
For the variant U47A U102C U109A U112C, the self-cleavage stood at 1.45.
For U46A C61U U132C A136G A141G, the self-cleavage is 0.06.
For U46C G72A A94G the value was 0.39; for U45A A67U G106A, 0.11.
For U46C A136G A140G the value was 1.88; for U46A A59G A65U U134C, 0.13; for U46C U115A G137A, 1.35.
As to U45C U100C A117U, the self-cleavage came to 2.52.
Consider U47A U85A U87A C98U A138G, for which the self-cleavage is 0.03.
U45C U112A U119C: the self-cleavage was found to be 0.
For U45G A77U U96C C118U the value was 0.1.
In the case of U46C U108C U115A A140U, the self-cleavage stood at 2.21.
Turning to U45C C90U U100C U119A, the self-cleavage is 0.
As for U45C A77G A94U U104C, the self-cleavage stood at 0.34.
U45C U130C U143C: the self-cleavage was 0.97.
For U45A U100C A124G U134G the value was 2.45.
As to U45C A94G A136G, the self-cleavage was determined as 0.24.
Regarding U47A U52C U112C, the self-cleavage came to 1.09.
Next, U45C U100C A129G A140U: 0.42; U46A A50U U87A: 0.03; U47A U100C A124U: 2.01.
As to U45A U52A A124U A140G, the self-cleavage was found to be 1.41.
Next, U45C A65U A107U U112C A124G: 0.
Take U47A C113U U115C: the self-cleavage came to 1.04.
With U45A U100C U109C, the self-cleavage stood at 0.32.
U45C G53A A94G: the self-cleavage was determined as 0.31.
For U46C C123U A140G, the self-cleavage was found to be 1.46.
For U47A A124G A136U the value was 1.28.
In the case of U46C U104G A142G, the self-cleavage stood at 0.25.
As for U45C A67G C101U A142G, the self-cleavage came out at 0.99.
Consider U46A U87C U130A, for which the self-cleavage came out at 0.19.
As to U45C A78G A92U U132C, the self-cleavage worked out at 1.08.
Regarding U45C C63A G125A, the self-cleavage was determined as 0.04.
For U47A A69U U73A C84U A94G U134C the value was 0.05.
Turning to U46A U62A U81C C113A, the self-cleavage came out at 0.03.
Turning to U46A G75U G106A U119A G125A A136G U143C, the self-cleavage was found to be 0.76.
Consider U46A U81A U130C, for which the self-cleavage worked out at 2.14.
In the case of U45C U62A U130C, the self-cleavage is 0.02.
Next, U47A U96A U108C: 0.01.
For U45C U47C A138G the value was 1.02; for U46C U115C U134C, 1.59; for U45C U87A A94U A138U, 0.03.
Consider U45A U100A A107U, for which the self-cleavage came out at 0.94.
As for U45C C63G A92G, the self-cleavage stood at 0.11.
For the variant U45C A59G U96A U143A, the self-cleavage is 0.07.
Take U45C A67G U134C: the self-cleavage amounted to 0.53.
For U45G A78G A92U C120U, the self-cleavage turned out to be 0.66.
Next, U45A U109C U143A: 1.03.
Regarding U46C A69G U115C C128A A136G A138G, the self-cleavage is 1.47.
For U45A U46A U96C, the self-cleavage came to 0.12.
In the case of U45C G60U A77G U109C A138G, the self-cleavage came out at 0.06.
U45G A67G U91C: the self-cleavage is 0.
For U47A A50U A57U C101A A141G the value was 0.09.
As for U46C A57G A69G U108C, the self-cleavage came to 1.15.
U46A U91A U96A A142G: the self-cleavage amounted to 0.07.
On to U46A A57U A78G, for which the self-cleavage amounted to 0.08.
For U45G G49C U104A the value was 1.71; for U46C G106U U130A, 1.05.
With U46G U81A U85C, the self-cleavage was found to be 0.1.
For the variant U46A A69G U130C, the self-cleavage amounted to 1.05.
As for U45A A78G U108C, the self-cleavage was 1.42.
As to U46C G72U U109C A117U U119A, the self-cleavage came to 1.05.
Turning to U45C U81A U104C U130C, the self-cleavage turned out to be 1.02.
As to U47A A50G U81C A121U, the self-cleavage was determined as 1.6.
Consider U46A C99A U109C U143A, for which the self-cleavage was 0.14.
Next, U45A U130C A140U: 0.99; U45A U130C A140G: 1.71.
Take U46C A94G U102A A141G: the self-cleavage turned out to be 0.13.
On to U46A A136C A141G, for which the self-cleavage was determined as 1.48.
Take U46C G53U A64U A129G: the self-cleavage amounted to 0.68.
On to U46C U108C A136G, for which the self-cleavage was determined as 1.25.
As to U46C U91A A107G U143C, the self-cleavage stood at 0.92.
Take U45A A77U U87A A142G: the self-cleavage came to 0.05.
Next, U46C U109A U130C: 0.54.
For the variant U46C U81A A107G, the self-cleavage turned out to be 2.35.
Next, U45C A59G C113U: 0.08.
For U46C U134C U143A, the self-cleavage was 1.2.
Next, U46A U119A U130C A142G: 1.83; U46C U52A A79G U132C: 0.71; U46C A50U A107G: 0.79.
Next, U46A U81A A117G: 1.74; U46C A69C A138G: 0.
For the variant U45C G54A U62C G93U A121G, the self-cleavage is 0.02.
With U46A U52C A78G U85A U132A, the self-cleavage was found to be 0.04.
Take U45C A78G U130C: the self-cleavage came out at 0.92.
Take U47A G70A A79G G86A U100C: the self-cleavage was 0.03.
As for U47A A50G A59G A78U A121U, the self-cleavage amounted to 0.19.
Turning to U46C A78G A142C, the self-cleavage amounted to 1.97.
For U45C U100C A107G, the self-cleavage is 1.93.
Next, U46A A64U A92G: 0.2; U45A U52C A79G A140G: 0.75; U46C A77U G88A U132G A138G: 0.
For U46C U52A U73C U132C A142U the value was 2.76.
With U46C A64U U112C A142G, the self-cleavage came out at 0.66.
On to U46C A79G A129G U132C, for which the self-cleavage is 0.
Next, U46A U73G A79C: 0.42; U46A U109C A136U: 1.8.
Turning to U46A A77G U91C A92G U112A A141G, the self-cleavage stood at 1.84.
For U46C U85A U115C U132G, the self-cleavage was determined as 0.1.
Consider U46C U96A A138G, for which the self-cleavage is 0.06.
With U46C A117U U132C A141G, the self-cleavage was determined as 0.77.
In the case of U45A U52C C71A, the self-cleavage was determined as 0.13.
With U46C U47C C84A U87A, the self-cleavage came out at 0.16.
As to U45C G53C U62C A78G U102C G114U A129G A142G, the self-cleavage was 0.
For the variant U46C G89U U132C, the self-cleavage was 0.05.
As to U46C C71U U96A A142G, the self-cleavage is 0.03.
With U45C G58A A65G C110A, the self-cleavage was 0.06.
Take U46C A78G C128U: the self-cleavage is 0.37.
For the variant U46C G114A A117U U130C, the self-cleavage worked out at 2.08.
For U47A U62A A64G G82A C113A A141G, the self-cleavage worked out at 0.07.
Next, U45C U62C U87C G114A: 0.07; U47A U104A A136G: 0.68; U45A C71U A138G: 1.18.
For U45C U115C A138U the value was 2.77.
In the case of U46A C68U G114A, the self-cleavage amounted to 0.1.
Next, U45C U47C U112C: 1.84.
As to U47A A57U A79G U109C, the self-cleavage was 0.08.
As for U45A A94G U130C A142G, the self-cleavage is 0.
Regarding U47A G54A C68U U85C U108C A142G, the self-cleavage came to 0.1.
For the variant U45G G58U U112A, the self-cleavage was found to be 0.03.
As for U45C U62A A69G U87A, the self-cleavage was found to be 0.
U46C U81A U100C: the self-cleavage was 2.85.
With U45C A69U U132C U143A, the self-cleavage worked out at 0.1.
For the variant U47A A64U U130C, the self-cleavage was found to be 0.31.
U47A U62C U119G U143A: the self-cleavage worked out at 0.15.
As for U47A U73C A107G, the self-cleavage stood at 2.36.
U46A A57G A78G U104C: the self-cleavage was 2.03.
Turning to U47A U62A C101U, the self-cleavage worked out at 0.01.
For U47A A94G U96C U130C A140G the value was 0.24; for U45C U52A A117G, 1.86; for U46C A92G U108C C116A A121G, 0.
As for U45C U85A G89A A141G, the self-cleavage turned out to be 0.06.
Regarding U47A U52A G135A, the self-cleavage amounted to 1.19.
Next, G44U U45C U47C U112C: 1.9; U47A U100C A117G U143C: 0.91.
With U46C G97U U100C U119C U132C, the self-cleavage was 0.06.
For U46C A78G A79C C95U A140U, the self-cleavage is 1.42.
Next, U45G U62C A77U: 0.02.
Regarding U46C A65G U85A U115C A141C A142G, the self-cleavage was determined as 0.
As for U46C U52A A78G U100C A121G, the self-cleavage came to 2.04.
With U46C G49A U104C, the self-cleavage is 1.45.
For U47A U109A U112C, the self-cleavage stood at 1.41.
Turning to U46A U62C U91A A92G, the self-cleavage amounted to 0.03.
Take U46C A79G U87A C95U U96A: the self-cleavage came to 0.07.
Consider U45C G48A A140G, for which the self-cleavage came out at 1.05.
U45C A67G U96A: the self-cleavage stood at 0.
For the variant U45A A79C C116U, the self-cleavage was found to be 2.04.
In the case of U45G U85G U109C U112A A141G, the self-cleavage amounted to 0.23.
Next, U46A C111U U119A A140G: 1.32.
Regarding U47A A57G A136G, the self-cleavage is 1.1.
As to U47A A57G A136U, the self-cleavage was 1.13.
With U46A A67C G83A U102C A107G, the self-cleavage came out at 0.02.
For U46C U85A A142U the value was 0.15; for U46C U87C A129U A142G, 0; for U46C U62C U134C, 0.05.
In the case of U46C U102C U134A, the self-cleavage turned out to be 1.93.
Consider U46C A57G U73A A78C U130C A141U A142G, for which the self-cleavage is 1.02.
For the variant U46A G55C U62C A65U A69G, the self-cleavage was 0.
In the case of U45A A57U A67G, the self-cleavage is 0.05.
On to G44U U45C U73A G137U, for which the self-cleavage was 1.9.
For U46C U73A G114A A124G the value was 1.59.
Next, U45G A78G A94G: 0.19; U46C A117G C131U: 1.23; U45C U73A C110A C118A: 1.25.
